Eight substances from article PMC3317836 can be followed below.

Chains of the proteins cited; added tags and fusions are not shown. Lines headed by an entry give the natural chain unless they say otherwise; changes in a name come on top. A line that says so, or that is headed by a name, gives the form on record, which may keep a tag or linker. Residues count along the entry.
VSV-plexinB1 (wild type) (O43157, residues 20-2135): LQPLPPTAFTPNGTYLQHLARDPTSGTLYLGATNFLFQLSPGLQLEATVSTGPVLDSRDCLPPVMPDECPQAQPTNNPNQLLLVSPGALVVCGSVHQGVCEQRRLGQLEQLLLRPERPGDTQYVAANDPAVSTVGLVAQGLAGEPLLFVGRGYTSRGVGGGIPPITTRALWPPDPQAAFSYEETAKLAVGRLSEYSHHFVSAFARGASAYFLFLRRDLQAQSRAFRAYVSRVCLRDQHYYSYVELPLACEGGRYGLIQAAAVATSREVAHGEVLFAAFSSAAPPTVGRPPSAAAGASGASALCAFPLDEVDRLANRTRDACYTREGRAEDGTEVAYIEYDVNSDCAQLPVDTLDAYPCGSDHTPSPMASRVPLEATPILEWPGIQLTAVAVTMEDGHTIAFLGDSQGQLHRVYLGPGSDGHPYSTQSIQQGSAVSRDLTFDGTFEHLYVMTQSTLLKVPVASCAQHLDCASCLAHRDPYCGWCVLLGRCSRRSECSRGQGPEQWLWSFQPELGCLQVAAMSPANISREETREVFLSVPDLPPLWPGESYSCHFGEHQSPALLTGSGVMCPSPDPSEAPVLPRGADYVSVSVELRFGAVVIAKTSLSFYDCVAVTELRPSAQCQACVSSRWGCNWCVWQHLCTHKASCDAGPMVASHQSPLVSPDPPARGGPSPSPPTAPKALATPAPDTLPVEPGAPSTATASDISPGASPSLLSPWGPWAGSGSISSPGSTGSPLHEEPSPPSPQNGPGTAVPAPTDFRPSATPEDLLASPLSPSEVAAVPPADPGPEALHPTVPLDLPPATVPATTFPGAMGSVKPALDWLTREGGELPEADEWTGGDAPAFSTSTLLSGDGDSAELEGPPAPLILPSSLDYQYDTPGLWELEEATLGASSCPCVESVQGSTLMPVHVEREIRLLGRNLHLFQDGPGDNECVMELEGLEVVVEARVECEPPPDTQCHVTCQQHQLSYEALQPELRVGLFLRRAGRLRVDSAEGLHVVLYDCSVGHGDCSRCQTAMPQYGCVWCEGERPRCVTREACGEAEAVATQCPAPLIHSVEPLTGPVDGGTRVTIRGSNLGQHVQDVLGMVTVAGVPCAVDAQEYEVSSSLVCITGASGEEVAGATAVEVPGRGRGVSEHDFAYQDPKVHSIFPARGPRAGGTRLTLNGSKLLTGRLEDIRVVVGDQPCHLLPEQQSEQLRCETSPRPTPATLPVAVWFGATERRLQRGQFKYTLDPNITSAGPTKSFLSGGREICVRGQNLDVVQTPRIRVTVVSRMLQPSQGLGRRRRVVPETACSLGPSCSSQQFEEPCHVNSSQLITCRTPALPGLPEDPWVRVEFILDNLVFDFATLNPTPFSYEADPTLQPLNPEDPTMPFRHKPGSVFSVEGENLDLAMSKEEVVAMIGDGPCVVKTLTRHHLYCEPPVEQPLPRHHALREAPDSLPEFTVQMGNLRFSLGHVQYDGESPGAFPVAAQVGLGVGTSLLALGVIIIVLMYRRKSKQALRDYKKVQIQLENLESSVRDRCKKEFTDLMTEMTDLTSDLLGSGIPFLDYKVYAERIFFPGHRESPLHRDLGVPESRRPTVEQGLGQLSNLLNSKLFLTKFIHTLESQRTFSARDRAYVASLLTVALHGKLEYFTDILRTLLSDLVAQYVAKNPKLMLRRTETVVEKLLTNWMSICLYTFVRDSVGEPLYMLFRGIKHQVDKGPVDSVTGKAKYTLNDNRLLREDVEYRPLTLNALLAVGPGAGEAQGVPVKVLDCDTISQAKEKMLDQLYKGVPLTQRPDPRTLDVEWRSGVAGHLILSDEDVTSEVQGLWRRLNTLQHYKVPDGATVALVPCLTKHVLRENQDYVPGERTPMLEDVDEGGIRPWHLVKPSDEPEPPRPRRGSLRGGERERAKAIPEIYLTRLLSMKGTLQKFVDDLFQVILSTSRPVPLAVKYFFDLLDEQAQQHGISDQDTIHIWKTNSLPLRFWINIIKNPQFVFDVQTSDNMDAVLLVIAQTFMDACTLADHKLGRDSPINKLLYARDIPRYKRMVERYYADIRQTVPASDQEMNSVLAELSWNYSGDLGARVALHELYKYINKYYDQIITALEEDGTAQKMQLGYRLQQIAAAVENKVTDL
VSV-plexinB1 (L1815P) (O43157, form named): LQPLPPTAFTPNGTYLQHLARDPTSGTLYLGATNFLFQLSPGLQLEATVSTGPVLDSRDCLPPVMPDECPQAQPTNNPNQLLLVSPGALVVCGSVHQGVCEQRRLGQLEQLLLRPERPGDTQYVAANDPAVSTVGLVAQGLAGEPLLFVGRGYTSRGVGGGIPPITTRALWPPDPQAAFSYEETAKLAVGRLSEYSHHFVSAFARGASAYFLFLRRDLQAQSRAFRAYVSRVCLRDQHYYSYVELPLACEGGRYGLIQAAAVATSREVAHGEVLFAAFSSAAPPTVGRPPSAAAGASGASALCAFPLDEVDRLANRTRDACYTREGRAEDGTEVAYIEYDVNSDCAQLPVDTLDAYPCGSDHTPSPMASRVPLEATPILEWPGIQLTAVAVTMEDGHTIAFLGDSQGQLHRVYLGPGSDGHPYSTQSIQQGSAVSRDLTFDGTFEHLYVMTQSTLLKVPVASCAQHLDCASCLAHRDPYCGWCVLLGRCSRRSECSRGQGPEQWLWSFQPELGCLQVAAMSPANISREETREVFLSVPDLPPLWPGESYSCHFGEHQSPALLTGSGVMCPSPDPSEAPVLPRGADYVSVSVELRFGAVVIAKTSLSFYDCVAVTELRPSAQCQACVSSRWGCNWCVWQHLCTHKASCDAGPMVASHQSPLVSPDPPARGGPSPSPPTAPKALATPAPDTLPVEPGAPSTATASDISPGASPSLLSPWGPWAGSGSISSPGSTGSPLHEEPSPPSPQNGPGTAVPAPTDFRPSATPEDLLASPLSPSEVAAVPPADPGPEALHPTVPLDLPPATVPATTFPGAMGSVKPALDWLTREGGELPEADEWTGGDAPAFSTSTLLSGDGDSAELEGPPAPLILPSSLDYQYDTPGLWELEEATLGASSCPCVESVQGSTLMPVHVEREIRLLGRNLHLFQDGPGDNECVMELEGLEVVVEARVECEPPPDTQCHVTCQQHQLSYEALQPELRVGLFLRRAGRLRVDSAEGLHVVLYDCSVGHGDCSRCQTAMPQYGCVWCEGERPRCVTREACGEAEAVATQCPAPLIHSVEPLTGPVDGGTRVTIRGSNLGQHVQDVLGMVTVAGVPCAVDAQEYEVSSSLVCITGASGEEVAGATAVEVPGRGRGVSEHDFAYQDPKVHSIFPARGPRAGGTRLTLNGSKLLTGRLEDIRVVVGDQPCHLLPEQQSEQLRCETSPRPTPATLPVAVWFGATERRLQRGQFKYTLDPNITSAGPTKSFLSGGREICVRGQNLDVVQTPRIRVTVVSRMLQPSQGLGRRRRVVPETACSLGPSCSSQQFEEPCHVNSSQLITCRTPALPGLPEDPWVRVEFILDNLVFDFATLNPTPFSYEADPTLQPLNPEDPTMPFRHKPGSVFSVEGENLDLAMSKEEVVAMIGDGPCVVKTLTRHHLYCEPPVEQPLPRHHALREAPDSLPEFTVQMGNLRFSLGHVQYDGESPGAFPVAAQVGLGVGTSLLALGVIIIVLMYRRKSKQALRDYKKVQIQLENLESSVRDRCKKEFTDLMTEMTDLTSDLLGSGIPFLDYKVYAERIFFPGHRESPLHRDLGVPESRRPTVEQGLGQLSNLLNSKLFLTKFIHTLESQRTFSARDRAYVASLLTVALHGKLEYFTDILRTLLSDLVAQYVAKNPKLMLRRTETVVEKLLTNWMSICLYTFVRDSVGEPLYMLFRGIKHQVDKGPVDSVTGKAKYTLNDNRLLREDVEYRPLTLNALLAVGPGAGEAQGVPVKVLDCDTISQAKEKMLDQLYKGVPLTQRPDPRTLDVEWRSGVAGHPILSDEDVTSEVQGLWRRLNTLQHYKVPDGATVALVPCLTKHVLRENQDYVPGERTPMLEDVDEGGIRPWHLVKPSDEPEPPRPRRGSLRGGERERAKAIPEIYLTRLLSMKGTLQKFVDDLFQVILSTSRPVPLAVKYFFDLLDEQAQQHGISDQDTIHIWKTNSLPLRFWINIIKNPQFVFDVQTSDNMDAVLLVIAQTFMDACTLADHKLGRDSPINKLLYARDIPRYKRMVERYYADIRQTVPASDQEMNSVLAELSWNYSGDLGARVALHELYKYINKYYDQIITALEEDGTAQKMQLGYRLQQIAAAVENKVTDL
VSV-plexinB1 (T1795A) (O43157, form named): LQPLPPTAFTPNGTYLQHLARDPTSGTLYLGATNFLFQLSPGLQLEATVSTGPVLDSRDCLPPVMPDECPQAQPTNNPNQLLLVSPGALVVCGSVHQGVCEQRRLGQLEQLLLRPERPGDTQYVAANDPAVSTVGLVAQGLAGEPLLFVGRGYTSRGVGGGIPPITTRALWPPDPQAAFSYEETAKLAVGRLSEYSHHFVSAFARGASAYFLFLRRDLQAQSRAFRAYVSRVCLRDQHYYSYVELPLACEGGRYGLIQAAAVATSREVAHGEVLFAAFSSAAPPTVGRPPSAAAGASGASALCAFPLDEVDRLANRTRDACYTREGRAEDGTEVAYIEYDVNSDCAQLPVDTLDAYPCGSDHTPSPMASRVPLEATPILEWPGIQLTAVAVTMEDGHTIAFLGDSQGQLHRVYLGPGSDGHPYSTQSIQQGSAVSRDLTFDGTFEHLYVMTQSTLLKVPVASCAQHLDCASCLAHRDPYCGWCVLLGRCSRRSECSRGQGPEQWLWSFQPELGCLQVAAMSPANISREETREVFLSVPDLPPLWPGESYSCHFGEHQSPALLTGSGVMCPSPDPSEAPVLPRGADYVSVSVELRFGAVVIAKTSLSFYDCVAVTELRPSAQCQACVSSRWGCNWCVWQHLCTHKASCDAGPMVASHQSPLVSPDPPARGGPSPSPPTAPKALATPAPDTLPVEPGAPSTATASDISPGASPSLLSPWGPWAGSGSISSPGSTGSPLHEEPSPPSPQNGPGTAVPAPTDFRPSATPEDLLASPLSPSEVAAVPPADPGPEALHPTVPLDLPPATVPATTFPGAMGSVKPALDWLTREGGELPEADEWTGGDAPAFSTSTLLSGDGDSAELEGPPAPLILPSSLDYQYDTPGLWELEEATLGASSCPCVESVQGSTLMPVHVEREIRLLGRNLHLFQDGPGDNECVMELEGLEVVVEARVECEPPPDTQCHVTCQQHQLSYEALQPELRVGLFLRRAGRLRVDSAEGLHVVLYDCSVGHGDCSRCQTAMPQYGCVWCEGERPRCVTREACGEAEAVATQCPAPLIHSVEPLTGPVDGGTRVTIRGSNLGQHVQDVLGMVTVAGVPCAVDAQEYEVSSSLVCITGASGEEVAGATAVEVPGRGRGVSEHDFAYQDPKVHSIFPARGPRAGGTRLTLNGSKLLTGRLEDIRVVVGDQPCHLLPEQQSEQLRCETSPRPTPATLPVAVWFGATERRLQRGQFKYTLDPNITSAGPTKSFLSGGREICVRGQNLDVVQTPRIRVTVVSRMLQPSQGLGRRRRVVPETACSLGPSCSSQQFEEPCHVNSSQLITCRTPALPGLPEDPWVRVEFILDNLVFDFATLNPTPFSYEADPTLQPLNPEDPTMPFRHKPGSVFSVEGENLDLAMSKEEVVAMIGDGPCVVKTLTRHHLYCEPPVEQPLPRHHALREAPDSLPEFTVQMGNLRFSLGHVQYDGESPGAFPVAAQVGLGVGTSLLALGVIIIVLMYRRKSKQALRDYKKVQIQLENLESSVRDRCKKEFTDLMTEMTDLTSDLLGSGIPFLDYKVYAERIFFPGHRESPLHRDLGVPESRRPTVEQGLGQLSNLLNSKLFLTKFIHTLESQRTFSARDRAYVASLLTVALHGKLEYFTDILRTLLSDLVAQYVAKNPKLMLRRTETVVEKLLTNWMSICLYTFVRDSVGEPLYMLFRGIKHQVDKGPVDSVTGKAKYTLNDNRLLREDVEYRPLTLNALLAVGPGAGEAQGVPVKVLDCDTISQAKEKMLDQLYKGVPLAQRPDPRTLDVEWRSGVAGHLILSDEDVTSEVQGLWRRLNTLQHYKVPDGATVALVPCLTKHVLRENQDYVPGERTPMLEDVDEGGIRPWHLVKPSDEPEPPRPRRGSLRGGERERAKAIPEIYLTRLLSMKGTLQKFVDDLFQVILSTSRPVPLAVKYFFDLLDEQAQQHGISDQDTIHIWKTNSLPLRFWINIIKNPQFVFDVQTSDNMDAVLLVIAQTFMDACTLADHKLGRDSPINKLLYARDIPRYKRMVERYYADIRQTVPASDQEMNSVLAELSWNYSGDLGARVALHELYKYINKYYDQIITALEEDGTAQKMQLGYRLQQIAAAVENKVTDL

No constants are given. Whether binding was seen depends on the method and setting. For part of these data: In cells and extracts the contact can be indirect. Some results given as binding are weak or reduced against the parent protein; the word gives no strength. For part of these data: Tags and fused reporters may be left off the sequences shown.

The target of assay [1] is VSV-plexinB1 (L1815P) (UniProt O43157). The assay is described as follows: co-IP; lysates of HEK293 cells co-expressing VSV-plexinB1 (WT or mutant) and PDZRhoGEF, ErbB2 or c-Met; 1 μg anti-VSV for 2 h at 4°C, Protein-G sepharose 2 h, washed 3 times, immunoblotting.
Assay [2] has as its target VSV-plexinB1 (T1795A) (UniProt O43157). Described as above.
Assay [3] concerns the target VSV-plexinB1 (T1697A) (UniProt O43157). Described as above.
For assay [4], the target named is T1, Sema4D-Fc (UniProt Q92854).
T1 sequence: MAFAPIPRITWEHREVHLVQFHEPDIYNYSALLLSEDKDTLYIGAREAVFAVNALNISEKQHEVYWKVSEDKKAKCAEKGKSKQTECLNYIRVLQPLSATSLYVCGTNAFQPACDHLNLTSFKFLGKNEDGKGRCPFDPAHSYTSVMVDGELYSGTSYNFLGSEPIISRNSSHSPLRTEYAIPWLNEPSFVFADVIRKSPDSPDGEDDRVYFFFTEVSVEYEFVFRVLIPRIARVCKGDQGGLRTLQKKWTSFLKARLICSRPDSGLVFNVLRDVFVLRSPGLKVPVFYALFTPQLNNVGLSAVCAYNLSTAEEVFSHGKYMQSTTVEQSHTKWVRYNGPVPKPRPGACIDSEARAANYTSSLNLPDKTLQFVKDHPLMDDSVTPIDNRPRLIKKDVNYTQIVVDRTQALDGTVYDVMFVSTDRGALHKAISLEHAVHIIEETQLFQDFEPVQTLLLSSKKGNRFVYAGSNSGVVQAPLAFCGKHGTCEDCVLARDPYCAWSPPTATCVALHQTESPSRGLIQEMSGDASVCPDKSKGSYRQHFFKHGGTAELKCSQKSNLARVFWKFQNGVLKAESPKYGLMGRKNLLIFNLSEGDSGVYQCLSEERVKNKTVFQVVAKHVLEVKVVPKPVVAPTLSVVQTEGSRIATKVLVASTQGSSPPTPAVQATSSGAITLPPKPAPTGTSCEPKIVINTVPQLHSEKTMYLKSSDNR
The assay is described as follows: co-IP; HEK293T cells cotransfected with VSV-plexinB1 (WT or mutant) and Sema4D-Fc; lysate immunoprecipitated with anti-Fc antibody, plexinB1 detected.

The target of assay [5] is VSV-plexinB1 (wild type) (UniProt O43157). The experiment in a line: co-IP; lysates of HEK293 cells co-expressing VSV-plexinB1 (WT or mutant) and PDZRhoGEF, ErbB2 or c-Met; 1 μg anti-VSV for 2 h at 4°C, Protein-G sepharose 2 h, washed 3 times, immunoblotting. In general terms: A western blot detects proteins with antibodies after separation by electrophoresis.
Assay [6] has as its target VSV-plexinB1 (L1815P) (UniProt O43157). The experiment in a line: in situ binding of an alkaline phosphatase fusion protein to transfected cells; COS-7 cells transfected with plexinB1 (WT or mutant) and RacL61 or vector, treated with HBAH containing 1,000 ng/ml Sema4D-AP for 90 min, washed, fixed, 65°C for 100 min, BCIP/NBT; bound alkaline phosphatase activity.
Assay [7] deals with VSV-plexinB1 (T1795A) (UniProt O43157). The description is as above.
Assay [8] addresses VSV-plexinB1 (wild type) (UniProt O43157). The assay is described as above.
Assay [9] has as its target VSV-plexinB1 (T1697A) (UniProt O43157). The description is as above.

With “c-Met (from UniProt P08581 25-1390) (receptor)”, the binding result in [1], in assay [2] and in assay [3] was “binds” each time.
For the substance “VSV-plexinB1 (T1795A) (from UniProt O43157 20-2135) (receptor)”, the binding entry in assay [4] was “binds”.
On to PDZRhoGEF (from UniProt O15085 1-1522), for which the binding result in assay [1], in assay [2], in assay [5] and in [3] was “binds” in each case.
Consider “VSV-plexinB1 (L1815P) (from UniProt O43157 20-2135) (receptor)”, for which, in assay [4], the binding entry is listed as “binds”.
The same measure, in the same setting: the same measure for “VSV-plexinB1 (T1697A) (from UniProt O43157 20-2135) (receptor)”: “binds”.
As to “Sema4D-AP fusion protein (from UniProt Q92854 22-734) (ligand)”, the binding result in [6], in assay [7], in assay [8] and in assay [9] was “binds” throughout.
Turning to “VSV-plexinB1 (wild type) (from UniProt O43157 20-2135) (receptor)”, the binding entry in assay [4] is on record as “binds”.
Turning to “ErbB2 (from UniProt P04626 23-1255) (receptor)”, the binding result in assay [1], in [2] and in assay [3] was “binds” throughout.
